The text below walks through data of PMC4832077.

Chains of the proteins cited; added tags and fusions are not shown. Lines headed by an entry give the natural chain unless they say otherwise; changes in a name come on top. Residues count along the entry.
UniProt P56199, residues 29-1179: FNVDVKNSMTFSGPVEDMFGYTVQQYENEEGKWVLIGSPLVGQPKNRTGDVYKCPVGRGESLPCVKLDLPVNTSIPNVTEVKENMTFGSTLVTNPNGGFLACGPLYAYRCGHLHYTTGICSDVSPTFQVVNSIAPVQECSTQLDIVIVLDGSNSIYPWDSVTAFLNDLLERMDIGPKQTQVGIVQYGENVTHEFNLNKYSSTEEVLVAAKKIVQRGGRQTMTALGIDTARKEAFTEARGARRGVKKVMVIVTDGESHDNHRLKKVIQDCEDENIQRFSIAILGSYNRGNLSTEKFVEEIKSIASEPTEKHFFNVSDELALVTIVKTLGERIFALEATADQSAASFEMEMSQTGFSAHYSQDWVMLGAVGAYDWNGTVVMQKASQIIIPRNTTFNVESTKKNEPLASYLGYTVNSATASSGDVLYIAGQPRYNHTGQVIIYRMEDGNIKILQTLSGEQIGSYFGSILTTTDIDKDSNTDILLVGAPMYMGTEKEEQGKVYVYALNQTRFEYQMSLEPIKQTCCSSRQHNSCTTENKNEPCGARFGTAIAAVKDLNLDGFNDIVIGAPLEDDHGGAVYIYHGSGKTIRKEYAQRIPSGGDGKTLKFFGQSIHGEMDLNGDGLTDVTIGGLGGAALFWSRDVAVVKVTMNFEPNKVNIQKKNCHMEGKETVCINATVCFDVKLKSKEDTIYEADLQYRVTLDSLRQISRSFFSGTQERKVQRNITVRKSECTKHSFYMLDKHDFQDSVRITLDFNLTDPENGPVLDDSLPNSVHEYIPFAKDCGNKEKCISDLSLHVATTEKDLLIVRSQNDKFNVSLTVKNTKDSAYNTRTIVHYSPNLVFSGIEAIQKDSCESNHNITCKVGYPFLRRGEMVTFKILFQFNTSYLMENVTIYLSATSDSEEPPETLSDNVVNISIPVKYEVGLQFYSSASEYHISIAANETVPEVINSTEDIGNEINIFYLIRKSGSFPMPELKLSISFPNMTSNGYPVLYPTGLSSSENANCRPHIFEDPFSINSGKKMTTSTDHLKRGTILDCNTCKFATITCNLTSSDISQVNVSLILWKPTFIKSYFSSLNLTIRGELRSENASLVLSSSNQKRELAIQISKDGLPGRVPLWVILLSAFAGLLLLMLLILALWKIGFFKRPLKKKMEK
UniProt P05106, residues 27-788: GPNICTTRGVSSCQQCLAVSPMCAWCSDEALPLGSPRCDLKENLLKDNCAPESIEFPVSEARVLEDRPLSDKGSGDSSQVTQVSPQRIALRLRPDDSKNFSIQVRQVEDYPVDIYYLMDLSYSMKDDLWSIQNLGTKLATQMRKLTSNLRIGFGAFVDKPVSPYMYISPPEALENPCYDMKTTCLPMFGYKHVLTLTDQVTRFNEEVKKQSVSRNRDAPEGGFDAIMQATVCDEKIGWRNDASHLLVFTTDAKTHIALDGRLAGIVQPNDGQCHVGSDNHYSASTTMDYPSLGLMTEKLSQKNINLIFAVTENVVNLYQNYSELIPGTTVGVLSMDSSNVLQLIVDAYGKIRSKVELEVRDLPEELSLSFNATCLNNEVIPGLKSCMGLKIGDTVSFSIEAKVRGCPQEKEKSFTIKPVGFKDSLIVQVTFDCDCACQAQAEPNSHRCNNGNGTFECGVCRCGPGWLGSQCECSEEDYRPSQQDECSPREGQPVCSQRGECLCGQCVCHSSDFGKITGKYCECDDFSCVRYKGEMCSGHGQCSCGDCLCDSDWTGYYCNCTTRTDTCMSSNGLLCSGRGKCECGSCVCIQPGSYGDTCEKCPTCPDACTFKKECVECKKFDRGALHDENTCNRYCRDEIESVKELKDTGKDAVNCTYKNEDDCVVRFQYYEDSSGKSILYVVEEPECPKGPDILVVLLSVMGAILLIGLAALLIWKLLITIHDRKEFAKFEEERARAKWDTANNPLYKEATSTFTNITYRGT
UniProt O00214: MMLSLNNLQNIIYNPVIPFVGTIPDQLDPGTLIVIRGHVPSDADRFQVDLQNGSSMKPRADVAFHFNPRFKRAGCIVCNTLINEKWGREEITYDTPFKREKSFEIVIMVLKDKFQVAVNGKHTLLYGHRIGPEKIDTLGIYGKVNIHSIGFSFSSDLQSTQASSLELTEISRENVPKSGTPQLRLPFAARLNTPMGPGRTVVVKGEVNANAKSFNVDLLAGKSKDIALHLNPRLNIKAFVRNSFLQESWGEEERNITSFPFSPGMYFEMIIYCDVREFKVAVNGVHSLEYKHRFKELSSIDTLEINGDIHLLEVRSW
UniProt P05556: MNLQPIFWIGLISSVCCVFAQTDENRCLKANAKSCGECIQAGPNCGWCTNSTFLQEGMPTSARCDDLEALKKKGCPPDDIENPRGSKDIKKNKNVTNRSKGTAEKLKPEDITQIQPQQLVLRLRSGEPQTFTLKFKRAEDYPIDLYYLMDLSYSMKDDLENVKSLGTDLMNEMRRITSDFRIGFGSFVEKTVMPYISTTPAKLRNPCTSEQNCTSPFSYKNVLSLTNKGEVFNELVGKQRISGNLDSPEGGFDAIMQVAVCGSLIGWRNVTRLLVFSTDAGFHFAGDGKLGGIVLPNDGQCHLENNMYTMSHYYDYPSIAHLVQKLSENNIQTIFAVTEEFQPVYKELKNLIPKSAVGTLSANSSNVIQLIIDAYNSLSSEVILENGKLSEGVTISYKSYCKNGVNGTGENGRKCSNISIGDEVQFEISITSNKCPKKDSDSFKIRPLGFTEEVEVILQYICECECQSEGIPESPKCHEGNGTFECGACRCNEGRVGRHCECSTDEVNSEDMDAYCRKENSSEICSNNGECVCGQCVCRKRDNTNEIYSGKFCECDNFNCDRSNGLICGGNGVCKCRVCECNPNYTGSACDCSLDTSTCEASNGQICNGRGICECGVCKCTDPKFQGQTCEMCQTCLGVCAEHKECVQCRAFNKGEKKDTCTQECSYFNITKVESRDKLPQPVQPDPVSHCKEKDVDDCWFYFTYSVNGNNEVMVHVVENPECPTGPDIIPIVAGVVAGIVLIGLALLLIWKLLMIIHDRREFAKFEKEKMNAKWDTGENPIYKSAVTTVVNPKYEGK

These are yes or no findings as the source states them, for the method shown. In cells and extracts the contact can be indirect. Some binding calls cover weakened binding; strength is not graded here.

To fix the notation:
T1: podoplanin (PDPN) expressed in lymphatic endothelial cells (human (endogenous in primary LECs)) (UniProt Q86YL7)
T1 sequence (chain, carries α2,3-sialylated glycans (bound by MAA II)): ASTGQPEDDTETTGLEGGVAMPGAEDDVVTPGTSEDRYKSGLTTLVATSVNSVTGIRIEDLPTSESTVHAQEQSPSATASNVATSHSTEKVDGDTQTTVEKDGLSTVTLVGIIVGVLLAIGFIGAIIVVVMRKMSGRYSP

B1: integrin α9 (receptor, UniProt Q13797 30-1035)
chain: YNLDPQRPVHFQGPADSFFGYAVLEHFHDNTRWVLVGAPKADSKYSPSVKSPGAVFKCRVHTNPDRRCTELDMARGKNRGTSCGKTCREDRDDEWMGVSLARQPKADGRVLACAHRWKNIYYEADHILPHGFCYIIPSNLQAKGRTLIPCYEEYKKKYGEEHGSCQAGIAGFFTEELVVMGAPGSFYWAGTIKVLNLTDNTYLKLNDEVIMNRRYTYLGYAVTAGHFSHPSTIDVVGGAPQDKGIGKVYIFRADRRSGTLIKIFQASGKKMGSYFGSSLCAVDLNGDGLSDLLVGAPMFSEIRDEGQVTVYINRGNGALEEQLALTGDGAYNAHFGESIASLDDLDNDGFPDVAIGAPKEDDFAGAVYIYHGDAGGIVPQYSMKLSGQKINPVLRMFGQSISGGIDMDGNGYPDVTVGAFMSDSVVLLRARPVITVDVSIFLPGSINITAPQCHDGQQPVNCLNVTTCFSFHGKHVPGEIGLNYVLMADVAKKEKGQMPRVYFVLLGETMGQVTEKLQLTYMEETCRHYVAHVKRRVQDVISPIVFEAAYSLSEHVTGEEERELPPLTPVLRWKKGQKIAQKNQTVFERNCRSEDCAADLQLQGKLLLSSMDEKTLYLALGAVKNISLNISISNLGDDAYDANVSFNVSRELFFINMWQKEEMGISCELLESDFLKCSVGFPFMRSKSKYEFSVIFDTSHLSGEEEVLSFIVTAQSGNTERSESLHDNTLVLMVPLMHEVDTSITGIMSPTSFVYGESVDAANFIQLDDLECHFQPINITLQVYNTGPSTLPGSSVSISFPNRLSSGGAEMFHVQEMVVGQEKGNCSFQKNPTPCIIPQEQENIFHTIFAFFTKSGRKVLDCEKPGISCLTAHCNFSALAKEESRTIDIYMLLNTEILKKDSSSVIQFMSRAKVKVDPALRVVEIAHGNPEEVTVVFEALHNLEPRGYVVGWIIAISLLVGILIFLLLAVLLWKMGFFRRRYKEIIEAEKNRKENEDSWDWVQKNQ

This experiment concerns the target T1, podoplanin (PDPN) expressed in lymphatic endothelial cells (human (endogenous in primary LECs)). The experiment is described as follows: co-IP; anti-PDPN (clone E-1) on AminoLink Plus resin; lysates of serum-starved primary LECs, untreated or treated with galectin-8 for 15 min at 37 °C; IP buffer 25 mM Tris, 150 mM NaCl, 1 mM EDTA, 1% NP-40, 5% glycerol, pH 7.4; 4 °C overnight; western blot. Background: A western blot detects proteins with antibodies after separation by electrophoresis.
“integrin α1 (from UniProt P56199 29-1179) (receptor)”: the binding result is listed as “binds”. Under “integrin β3 (from UniProt P05106 27-788) (receptor)” stands “no binding”. The result for “endogenous galectin-8 (from UniProt O00214 1-317)” reads “binds”. Under “integrin β1 (from UniProt P05556 21-798) (receptor)” stands “binds”. On to B1, for which the binding result was “no binding”.
